Assay results published in PubChem BioAssay AID1745853 (National Center for Advancing Translational Sciences (NCATS), 2022).
This is one part of the list. These are further read-outs of the screen, such as a control signal, another cell line or another target. No call is given for them.

Columns and labels:
Assay in all cases: Primary Screen for Target Class Profiling of Small Molecule Inhibitors of Methyltransferases
[1] = biological target: Glycine N-methyltransferase (Homo sapiens) (UniProt Q14749); details: purified enzyme, MTase-Glo SAH luminescence; measured here: GNMT inhibition; at 40 µM; stronger effect = lower value
Outline: (§1)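 Each enzyme was reacted with SAM and its substrate, with compounds tested once at 40 uM; SAH formed was read by MTase-Glo luminescence.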

[2] = biological target: Guanidinoacetate N-methyltransferase (Homo sapiens) (UniProt Q14353); details: purified enzyme, MTase-Glo SAH luminescence; measured here: GAMT inhibition; at 40 µM; stronger effect = lower value
Outline: as §1

[3] = biological target: Histamine N-methyltransferase (Homo sapiens) (UniProt P50135); details: purified enzyme, MTase-Glo SAH luminescence; measured here: HNMT inhibition; at 40 µM; stronger effect = lower value
Outline: as §1

[4] = biological target: Nicotinamide N-methyltransferase (Homo sapiens) (UniProt P40261); details: purified enzyme, MTase-Glo SAH luminescence; measured here: NNMT inhibition; at 40 µM; stronger effect = lower value
Outline: as §1

[5] = biological target: Phenylethanolamine N-methyltransferase (Homo sapiens) (UniProt P11086); details: purified enzyme, MTase-Glo SAH luminescence; measured here: PNMT inhibition; at 40 µM; stronger effect = lower value
Outline: as §1
% is scaled to controls: 0 for no effect and ±100 for the full control effect.

SMILES: O=c1c2ccccc2n2c(SCc3ccccc3F)nnc2n1Cc1ccccc1
- activity change, negative = inhibition [1]: -6.85%
- activity change, negative = inhibition [2]: 4.17%
- activity change, negative = inhibition [3]: -3.05%
- activity change, negative = inhibition [4]: -9.89%
- activity change, negative = inhibition [5]: 1.63%

SMILES: CCC(C)C(=O)O[C@@H]1[C@@H](O)[C@@H](O[C@H]2O[C@H](CO)[C@@H](O)[C@H](O)[C@H]2O)O[C@H](CO)[C@H]1O (stereo partly drawn)
- activity change, negative = inhibition [1]: 2.88%
- activity change, negative = inhibition [2]: 6.43%
- activity change, negative = inhibition [3]: 4.5%
- activity change, negative = inhibition [4]: -7.58%
- activity change, negative = inhibition [5]: 6.05%

SMILES: O=C(CCC1CCN(Cc2cn(-c3ccccc3)nn2)CC1)N1CCOCC1
- activity change, negative = inhibition [1]: 2.38%
- activity change, negative = inhibition [2]: 3.23%
- activity change, negative = inhibition [3]: 0.421%
- activity change, negative = inhibition [4]: 7.47%
- activity change, negative = inhibition [5]: -2.93%

SMILES: CC(C)CCn1c(=O)c2ccccc2n2c(CCC(=O)N3CCN(c4ccc(F)cc4)CC3)nnc12
- activity change, negative = inhibition [1]: -15%
- activity change, negative = inhibition [2]: 1.41%
- activity change, negative = inhibition [3]: -6%
- activity change, negative = inhibition [4]: -40.5%
- activity change, negative = inhibition [5]: -0.355%

SMILES: O=C(NCCCc1ccccc1F)[C@@]12CNC[C@@H]1CN(Cc1ccccc1)C2
- activity change, negative = inhibition [1]: -5.02%
- activity change, negative = inhibition [2]: -3.46%
- activity change, negative = inhibition [3]: -11.4%
- activity change, negative = inhibition [4]: -16.1%
- activity change, negative = inhibition [5]: -24.1%

SMILES: CN1CCC(N2CC[C@H](c3nc4ccccc4[nH]3)C2)CC1
- activity change, negative = inhibition [1]: -6.81%
- activity change, negative = inhibition [2]: -2.46%
- activity change, negative = inhibition [3]: -74.8%
- activity change, negative = inhibition [4]: -9.06%
- activity change, negative = inhibition [5]: -3.35%

SMILES: C=CC(=O)Nc1cccc(Nc2nc(Nc3ccccc3)ncc2C)c1
- activity change, negative = inhibition [2]: -2.8%
- activity change, negative = inhibition [4]: -24.3%
- activity change, negative = inhibition [5]: -13.6%

SMILES: COc1ccc2c(c1)O[C@H](O[C@@H]1O[C@H](CO)[C@@H](O)[C@H](O)[C@H]1O)C(=O)N2
- activity change, negative = inhibition [1]: -0.043%
- activity change, negative = inhibition [2]: 6.4%
- activity change, negative = inhibition [3]: 8.74%
- activity change, negative = inhibition [4]: -5.34%
- activity change, negative = inhibition [5]: 4.35%

SMILES: C[C@H]1CN(C(=O)CCCc2ccccc2)C[C@@H]1c1nc(-c2ccccc2)no1
- activity change, negative = inhibition [1]: -5.57%
- activity change, negative = inhibition [2]: 1.25%
- activity change, negative = inhibition [3]: -1.64%
- activity change, negative = inhibition [4]: -16.1%
- activity change, negative = inhibition [5]: 2.05%

SMILES: C/C(=C\Cc1c(O)c(Cl)c(C)c(C=O)c1O)CC/C=C(\C)[C@H]1CC(=O)C(C)(C)O1
- activity change, negative = inhibition [1]: -3.6%
- activity change, negative = inhibition [2]: -3.75%
- activity change, negative = inhibition [3]: 7.32%
- activity change, negative = inhibition [4]: -23.6%
- activity change, negative = inhibition [5]: -14.5%

SMILES: CCCCOc1ccc(CNC(=O)c2cc3n(n2)CC(C)(C(=O)NC2CCCCC2)N(C)C3=O)cc1 (stereo not drawn)
- activity change, negative = inhibition [1]: 2.5%
- activity change, negative = inhibition [2]: 5.52%
- activity change, negative = inhibition [3]: 0.535%
- activity change, negative = inhibition [4]: 0.545%
- activity change, negative = inhibition [5]: 1.38%

SMILES: CC(C)CNC(=O)c1ccc2c(=O)n(C(C)C)c3nn(CC(=O)NC(C)C)c(=O)n3c2c1
- activity change, negative = inhibition [1]: 3.34%
- activity change, negative = inhibition [2]: 1.07%
- activity change, negative = inhibition [3]: 6.88%
- activity change, negative = inhibition [4]: -2.64%
- activity change, negative = inhibition [5]: 3.39%

SMILES: CCNC(=O)N1CCCC(Cc2noc(-c3cnccn3)n2)C1 (stereo not drawn)
- activity change, negative = inhibition [1]: -7%
- activity change, negative = inhibition [2]: -9.84%
- activity change, negative = inhibition [3]: -5.06%
- activity change, negative = inhibition [4]: -13.7%
- activity change, negative = inhibition [5]: 0.062%

SMILES: CC1(C(=O)NC2CCCCCC2)Cn2c(cc3sccc32)C(=O)N1C1CCCc2ccccc21 (stereo not drawn)
- activity change, negative = inhibition [1]: -0.047%
- activity change, negative = inhibition [2]: 0%
- activity change, negative = inhibition [3]: 2.54%
- activity change, negative = inhibition [4]: 1.04%
- activity change, negative = inhibition [5]: -1.6%

SMILES: O=C(CCn1cnnn1)N1CCCC(CCc2cccc(C(F)(F)F)c2)C1 (stereo not drawn)
- activity change, negative = inhibition [1]: -6.32%
- activity change, negative = inhibition [2]: -9.84%
- activity change, negative = inhibition [3]: -5.89%
- activity change, negative = inhibition [4]: -16.2%
- activity change, negative = inhibition [5]: -8.48%

SMILES: Cc1cnn(CCC(=O)N2CCC3(CCNCC3)CC2)c1
- activity change, negative = inhibition [1]: -0.056%
- activity change, negative = inhibition [2]: -0.296%
- activity change, negative = inhibition [3]: -9.33%
- activity change, negative = inhibition [4]: -1.44%
- activity change, negative = inhibition [5]: 1.07%
